Measured values published in the supplement of paper PMC9151546.
± gives the standard deviation of the averaged measurements. Single values are uncertain, as repeats are few or missing.

What was measured:
CHO-K1 [1] = assay: micronucleus frequency (% of nucleated events); higher = more micronuclei (genotoxic)
CHO-K1 [2] = assay: hypodiploid nuclei frequency (% of nucleated events); higher = more hypodiploid events (aneugenic)
CHO-K1 [3] = assay: relative survival (nuclei to bead ratio vs DMSO control) (% of vehicle control); higher = more surviving cells
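Wherever hypodiploid nuclei frequency (% of nucleated events) is given: hypodiploid nuclei gated on a flow cytometer with 488 nm excitation after SYTOX Green staining, cultures at 37 °C, positive controls vinblastine without S9 and cyclophosphamide with S9.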
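Wherever micronucleus frequency (% of nucleated events) is given: cells lysed with nuclei stained by SYTOX Green, then micronucleus-gated events counted against nucleated events by flow cytometry with 488 nm excitation.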
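Wherever relative survival (nuclei to bead ratio vs DMSO control) is given: Lysed-cell nuclei stained with SYTOX Green and counted against counting beads by flow cytometry at 488 nm excitation, with vinblastine (no S9) and cyclophosphamide (plus S9) as positive controls.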

O=c1c(-c2ccc(O)cc2)coc2cc(O)ccc12 [Daidzein]
Settings	hypodiploid nuclei frequency, CHO-K1 [2] [%]	micronucleus frequency, CHO-K1 [1] [%]	relative survival, CHO-K1 [3]
concentration: 4.5 (µM), S9 metabolic activation: with S9, exposure time: 3-4 hours	0.28	1.32	92
concentration: 4.5 (µM), S9 metabolic activation: without S9, exposure time: 24 hours	0.68	1.08	117
concentration: 5.63 (µM), S9 metabolic activation: with S9, exposure time: 3-4 hours	0.22	1.1	87.3
concentration: 5.63 (µM), S9 metabolic activation: without S9, exposure time: 24 hours	0.56	1.14	96.3
concentration: 7.04 (µM), S9 metabolic activation: with S9, exposure time: 3-4 hours	0.24	0.7	91.7
concentration: 7.04 (µM), S9 metabolic activation: without S9, exposure time: 24 hours	0.62	1.14	97.4
concentration: 8.8 (µM), S9 metabolic activation: with S9, exposure time: 3-4 hours	0.22	1.58	87.1
concentration: 8.8 (µM), S9 metabolic activation: without S9, exposure time: 24 hours	0.34	1.08	93.1
concentration: 11 (µM), S9 metabolic activation: with S9, exposure time: 3-4 hours	0.22	1.32	90.3
concentration: 11 (µM), S9 metabolic activation: without S9, exposure time: 24 hours	0.72	1.08	105
concentration: 13.7 (µM), S9 metabolic activation: with S9, exposure time: 3-4 hours	0.2	1.46	109
concentration: 13.7 (µM), S9 metabolic activation: without S9, exposure time: 24 hours	0.7	1.06	88.1
concentration: 17.2 (µM), S9 metabolic activation: with S9, exposure time: 3-4 hours	0.36	1.36	90
concentration: 17.2 (µM), S9 metabolic activation: without S9, exposure time: 24 hours	0.42	0.98	84.5
concentration: 21.5 (µM), S9 metabolic activation: with S9, exposure time: 3-4 hours	0.32	1.82	87.3
concentration: 21.5 (µM), S9 metabolic activation: without S9, exposure time: 24 hours	0.58	1.24	82.5
concentration: 26.8 (µM), S9 metabolic activation: with S9, exposure time: 3-4 hours	0.22	1.84	92
concentration: 26.8 (µM), S9 metabolic activation: without S9, exposure time: 24 hours	0.66	1.66	87.2
concentration: 33.6 (µM), S9 metabolic activation: with S9, exposure time: 3-4 hours	0.44	2.5	91
concentration: 33.6 (µM), S9 metabolic activation: without S9, exposure time: 24 hours	0.72	1.22	89.1
concentration: 41.9 (µM), S9 metabolic activation: with S9, exposure time: 3-4 hours	0.38	2.88	86.2
concentration: 41.9 (µM), S9 metabolic activation: without S9, exposure time: 24 hours	0.58	1.66	93.6
concentration: 52.4 (µM), S9 metabolic activation: with S9, exposure time: 3-4 hours	0.42	3.52	77.4
concentration: 52.4 (µM), S9 metabolic activation: without S9, exposure time: 24 hours	0.72	1.12	85
concentration: 65.5 (µM), S9 metabolic activation: with S9, exposure time: 3-4 hours	0.46	3.22	78.5
concentration: 65.5 (µM), S9 metabolic activation: without S9, exposure time: 24 hours	0.56	1.5	85
concentration: 81.9 (µM), S9 metabolic activation: with S9, exposure time: 3-4 hours	0.84	4.88	77.2
concentration: 81.9 (µM), S9 metabolic activation: without S9, exposure time: 24 hours	0.7	1.52	86.3
concentration: 102 (µM), S9 metabolic activation: with S9, exposure time: 3-4 hours	1.78	8.7	59.7
concentration: 102 (µM), S9 metabolic activation: without S9, exposure time: 24 hours	0.56	1.48	93.6
concentration: 128 (µM), S9 metabolic activation: with S9, exposure time: 3-4 hours	2.48	10.5	54
concentration: 128 (µM), S9 metabolic activation: without S9, exposure time: 24 hours	0.7	1.32	85.4
concentration: 160 (µM), S9 metabolic activation: with S9, exposure time: 3-4 hours	–	–	32.3
concentration: 160 (µM), S9 metabolic activation: without S9, exposure time: 24 hours	0.54	1.62	71.8
concentration: 200 (µM), S9 metabolic activation: with S9, exposure time: 3-4 hours	–	–	22.9
concentration: 200 (µM), S9 metabolic activation: without S9, exposure time: 24 hours	0.88	1.3	63.8

ClC1=C(Cl)C2(Cl)C3C4CC(C5OC45)C3C1(Cl)C2(Cl)Cl (stereo not given) [Endrin]
Settings	hypodiploid nuclei frequency, CHO-K1 [2] [%]	micronucleus frequency, CHO-K1 [1] [%]	relative survival, CHO-K1 [3]
concentration: 4.5 (µM), S9 metabolic activation: with S9, exposure time: 3-4 hours	0.37 ± 0.24	2.1 ± 0.73	146 ± 22
concentration: 4.5 (µM), S9 metabolic activation: without S9, exposure time: 24 hours	1.36	1.8	85.6
concentration: 5.63 (µM), S9 metabolic activation: with S9, exposure time: 3-4 hours	0.32 ± 0.028	1.85 ± 0.47	135 ± 8.3
concentration: 5.63 (µM), S9 metabolic activation: without S9, exposure time: 24 hours	1.32	1.64	84.3
concentration: 7.04 (µM), S9 metabolic activation: with S9, exposure time: 3-4 hours	0.34 ± 0.28	2.07 ± 0.69	120 ± 7.8
concentration: 7.04 (µM), S9 metabolic activation: without S9, exposure time: 24 hours	1.28	1.5	108
concentration: 8.8 (µM), S9 metabolic activation: with S9, exposure time: 3-4 hours	0.28 ± 0.085	2.04 ± 0.85	112 ± 19
concentration: 8.8 (µM), S9 metabolic activation: without S9, exposure time: 24 hours	1.04	1.08	97.5
concentration: 11 (µM), S9 metabolic activation: with S9, exposure time: 3-4 hours	0.45 ± 0.18	2.38 ± 1.5	114 ± 22
concentration: 11 (µM), S9 metabolic activation: without S9, exposure time: 24 hours	1.04	0.68	105
concentration: 13.7 (µM), S9 metabolic activation: with S9, exposure time: 3-4 hours	0.29 ± 0.13	2.56 ± 0.93	132 ± 28
concentration: 13.7 (µM), S9 metabolic activation: without S9, exposure time: 24 hours	1.68	2.02	89.1
concentration: 17.2 (µM), S9 metabolic activation: with S9, exposure time: 3-4 hours	0.41 ± 0.042	3.95 ± 2.2	120 ± 58
concentration: 17.2 (µM), S9 metabolic activation: without S9, exposure time: 24 hours	1.4	1.5	92.9
concentration: 21.5 (µM), S9 metabolic activation: with S9, exposure time: 3-4 hours	0.45 ± 0.27	3.38 ± 2.3	101 ± 11
concentration: 21.5 (µM), S9 metabolic activation: without S9, exposure time: 24 hours	1	1.66	83.1
concentration: 26.8 (µM), S9 metabolic activation: with S9, exposure time: 3-4 hours	0.255 ± 0.12	1.56 ± 0.23	87.8 ± 16
concentration: 26.8 (µM), S9 metabolic activation: without S9, exposure time: 24 hours	1.7	2.1	97.5
concentration: 33.6 (µM), S9 metabolic activation: with S9, exposure time: 3-4 hours	0.18	1.53 ± 0.18	78.2 ± 18
concentration: 33.6 (µM), S9 metabolic activation: without S9, exposure time: 24 hours	1.76	1.32	69.3
concentration: 41.9 (µM), S9 metabolic activation: with S9, exposure time: 3-4 hours	0.39 ± 0.16	1.88 ± 0.37	101 ± 17
concentration: 41.9 (µM), S9 metabolic activation: without S9, exposure time: 24 hours	2.4	3	90
concentration: 52.4 (µM), S9 metabolic activation: with S9, exposure time: 3-4 hours	0.31 ± 0.071	1.63 ± 0.13	103 ± 15
concentration: 52.4 (µM), S9 metabolic activation: without S9, exposure time: 24 hours	1.76	1.38	54.9
concentration: 65.5 (µM), S9 metabolic activation: with S9, exposure time: 3-4 hours	0.3 ± 0.028	2.04 ± 0.68	89.8 ± 15
concentration: 65.5 (µM), S9 metabolic activation: without S9, exposure time: 24 hours	2.3	2.6	63
concentration: 81.9 (µM), S9 metabolic activation: with S9, exposure time: 3-4 hours	0.23 ± 0.099	1.57 ± 0.071	105 ± 39
concentration: 81.9 (µM), S9 metabolic activation: without S9, exposure time: 24 hours	2.42	1.74	58.6
concentration: 102 (µM), S9 metabolic activation: with S9, exposure time: 3-4 hours	0.26 ± 0.085	1.34 ± 0.4	80.6 ± 23
concentration: 102 (µM), S9 metabolic activation: without S9, exposure time: 24 hours	2.8	2.46	58.4
concentration: 128 (µM), S9 metabolic activation: with S9, exposure time: 3-4 hours	0.5 ± 0.11	2.03 ± 0.49	91.53 ± 0.38
concentration: 128 (µM), S9 metabolic activation: without S9, exposure time: 24 hours	2.94	3.36	66.9
concentration: 160 (µM), S9 metabolic activation: with S9, exposure time: 3-4 hours	0.38 ± 0.057	1.67 ± 0.77	61.9 ± 23
concentration: 160 (µM), S9 metabolic activation: without S9, exposure time: 24 hours	2.66	2.16	57.2
concentration: 200 (µM), S9 metabolic activation: with S9, exposure time: 3-4 hours	0.43 ± 0.24	3.4 ± 2.6	74.11 ± 0.33
concentration: 200 (µM), S9 metabolic activation: without S9, exposure time: 24 hours	1.88	2.24	56.5

Clc1cc(Cl)c(Cl)cc1Cl [1,2,4,5-Tetrachlorobenzene]
Settings	hypodiploid nuclei frequency, CHO-K1 [2] [%]	micronucleus frequency, CHO-K1 [1] [%]	relative survival, CHO-K1 [3]
concentration: 4.5 (µM), S9 metabolic activation: with S9, exposure time: 3-4 hours	0.08	0.74	81
concentration: 4.5 (µM), S9 metabolic activation: without S9, exposure time: 24 hours	0.5	1.54	122
concentration: 5.63 (µM), S9 metabolic activation: with S9, exposure time: 3-4 hours	0.1	0.92	88.2
concentration: 5.63 (µM), S9 metabolic activation: without S9, exposure time: 24 hours	0.46	1.24	132
concentration: 7.04 (µM), S9 metabolic activation: with S9, exposure time: 3-4 hours	0.08	0.8	81.6
concentration: 7.04 (µM), S9 metabolic activation: without S9, exposure time: 24 hours	0.32	1.06	134
concentration: 8.8 (µM), S9 metabolic activation: with S9, exposure time: 3-4 hours	0.14	0.94	103
concentration: 8.8 (µM), S9 metabolic activation: without S9, exposure time: 24 hours	0.4	1.2	156
concentration: 11 (µM), S9 metabolic activation: with S9, exposure time: 3-4 hours	0.24	0.88	88.6
concentration: 11 (µM), S9 metabolic activation: without S9, exposure time: 24 hours	0.44	1.32	137
concentration: 13.7 (µM), S9 metabolic activation: with S9, exposure time: 3-4 hours	0.28	0.84	93.3
concentration: 13.7 (µM), S9 metabolic activation: without S9, exposure time: 24 hours	0.2	1.12	171
concentration: 17.2 (µM), S9 metabolic activation: with S9, exposure time: 3-4 hours	0.24	0.86	86.8
concentration: 17.2 (µM), S9 metabolic activation: without S9, exposure time: 24 hours	0.38	1.32	147
concentration: 21.5 (µM), S9 metabolic activation: with S9, exposure time: 3-4 hours	0.3	0.86	91.9
concentration: 21.5 (µM), S9 metabolic activation: without S9, exposure time: 24 hours	0.5	1.06	134
concentration: 26.8 (µM), S9 metabolic activation: with S9, exposure time: 3-4 hours	0.1	0.74	71.9
concentration: 26.8 (µM), S9 metabolic activation: without S9, exposure time: 24 hours	0.46	2.16	140
concentration: 33.6 (µM), S9 metabolic activation: with S9, exposure time: 3-4 hours	0.18	0.88	75.9
concentration: 33.6 (µM), S9 metabolic activation: without S9, exposure time: 24 hours	0.62	1.46	136
concentration: 41.9 (µM), S9 metabolic activation: with S9, exposure time: 3-4 hours	0.1	0.64	98
concentration: 41.9 (µM), S9 metabolic activation: without S9, exposure time: 24 hours	0.44	1.2	153
concentration: 52.4 (µM), S9 metabolic activation: with S9, exposure time: 3-4 hours	0.12	0.42	93.8
concentration: 52.4 (µM), S9 metabolic activation: without S9, exposure time: 24 hours	0.42	1.42	124
concentration: 65.5 (µM), S9 metabolic activation: with S9, exposure time: 3-4 hours	0.2	0.7	74.8
concentration: 65.5 (µM), S9 metabolic activation: without S9, exposure time: 24 hours	0.52	1.58	145
concentration: 81.9 (µM), S9 metabolic activation: with S9, exposure time: 3-4 hours	0.1	0.7	101
concentration: 81.9 (µM), S9 metabolic activation: without S9, exposure time: 24 hours	0.58	1.44	157
concentration: 102 (µM), S9 metabolic activation: with S9, exposure time: 3-4 hours	0.3	1.22	86.6
concentration: 102 (µM), S9 metabolic activation: without S9, exposure time: 24 hours	0.72	1.48	143
concentration: 128 (µM), S9 metabolic activation: with S9, exposure time: 3-4 hours	0.18	0.74	98.6
concentration: 128 (µM), S9 metabolic activation: without S9, exposure time: 24 hours	0.5	2.04	157
concentration: 160 (µM), S9 metabolic activation: with S9, exposure time: 3-4 hours	0.2	0.86	94.1
concentration: 160 (µM), S9 metabolic activation: without S9, exposure time: 24 hours	1.08	1.78	129
concentration: 200 (µM), S9 metabolic activation: with S9, exposure time: 3-4 hours	0.1	0.82	81.6
concentration: 200 (µM), S9 metabolic activation: without S9, exposure time: 24 hours	1	2.24	121
